# Results as given in the supplement of paper PMC11348887.
# Values joined by “and” are separate entries in the source; they are usually repeats but may differ in a detail not shown here. Identical values can stand only once. Counter-ions that a name gives are not always drawn. This is one part of the list. No stated cut-off is given here; in the data, active = -2 or less and inactive = the rest. Many values rest on one well or one pass, so single values are uncertain.
# Tested on: hPSC-derived cortical neurons (WA09)
# Assay: nuclei number (viability) z-score; higher = more surviving cells
# Conditions: 5 µM; treatment: days 7-14 after plating, readout day 21
# 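Further: nuclei counted from DAPI counterstain by automated high-content image analysis, four fields per well at ×20 in 384-well plates, with sequential b-score then z-score normalization.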
row,Structure (SMILES),nuclei number (z-score)
1,Cc1ccc(C)c(OCCCC(C)(C)C(=O)O)c1 [Gemfibrozil],inactive: 2.47
2,O=C(O)C[C@H](O)C[C@H](O)/C=C/c1c(C2CC2)nc2ccccc2c1-c1ccc(F)cc1 [Pitavastatin Calcium],active: -4.86
3,Cc1ccc(Sc2ccccc2N2CCNCC2)c(C)c1,inactive: -1.07
4,C[C@H](NC(=O)CCc1nc2ccccc2c(=O)[nH]1)c1ccccc1,inactive: 2.03
5,NCC(=O)CCC(=O)O [5-Aminolevulinic acid HCl],inactive: 0.504
6,NC(=O)c1ccc[n+]([C@@H]2O[C@H](COP(=O)([O-])OP(=O)(O)OC[C@H]3O[C@@H](n4cnc5c(N)ncnc54)[C@H](O)[C@@H]3O)[C@@H](O)[C@H]2O)c1,inactive: 0.165
7,CN1CCC(CNc2ccc3ncc(-c4cccc(OC(F)(F)F)c4)n3n2)CC1 [SGI-1776 free base],active: -7.71
8,COc1ccc(C[C@H](NC(=O)[C@H](C)NC(=O)CN2CCOCC2)C(=O)N[C@@H](Cc2ccccc2)C(=O)[C@@]2(C)CO2)cc1,active: -4.42
9,CC(C[N+](C)(C)C)OC(N)=O (stereo not drawn) [Bethanechol chloride],inactive: 2.21
10,NCCC(O)(P(=O)(O)O)P(=O)(O)O [Pamidronate Disodium],inactive: -0.251
11,Cc1ccc2nc(NCCN)c3ncc(C)n3c2c1,inactive: 0.379
12,Cc1c(NC(=O)OC[C@@H]2COCCN2)cn2ncnc(Nc3ccc4c(cnn4Cc4cccc(F)c4)c3)c12,inactive: 1.56
13,Cc1cn([C@H]2C[C@H](N=[N+]=[N-])[C@@H](CO)O2)c(=O)[nH]c1=O [Zidovudine],inactive: -0.359
14,COc1ccc([C@@H]2Sc3ccccc3N(CCN(C)C)C(=O)[C@@H]2OC(C)=O)cc1 [Diltiazem HCl],inactive: -0.105
15,CC(=O)c1cc([N+](=O)[O-])c(Sc2ccc(F)cc2F)s1,inactive: 0.624
16,NS(=O)(=O)Cc1noc2ccccc12 [Zonisamide],inactive: 0.0716
17,COc1ccc2c(c1)C(=O)N(CCc1ccc(S(=O)(=O)NC(=O)NC3CCCCC3)cc1)C(=O)C2(C)C [Gliquidone],inactive: 0.584
18,C=CCc1ccc(O)c(-c2cc(CC=C)ccc2O)c1 [Magnolol],inactive: 0.922
19,Cc1cnc(-c2cnc(NCCNc3ccc(C#N)cn3)nc2-c2ccc(Cl)cc2Cl)[nH]1,inactive: -0.0385 and inactive: -1.89
20,CCNC(=O)c1noc(-c2cc(C(C)C)c(O)cc2O)c1-c1ccc(CN2CCOCC2)cc1,active: -2.72
21,"CC(=O)C1=C(O)C=C2Oc3c(C(C)=O)c(O)c(C)c(O)c3C2(C)C1=O (single isomer, unassigned; (+)) [(+)-Usniacin]",inactive: -0.0573

row,Structure (SMILES),nuclei number (z-score)
1,CNCc1ccc(-c2[nH]c3cc(F)cc4c3c2CCNC4=O)cc1,inactive: -0.15
2,CCCNC(C)C(=O)Nc1c(C)csc1C(=O)OC (stereo not drawn) [Articaine HCl],inactive: 0.431
3,Nc1nc(=O)c2c([nH]1)NC[C@H](CNc1ccc(C(=O)N[C@@H](CCC(=O)O)C(=O)O)cc1)N2C=O [Calcium Levofolinate],active: -2.03
4,COc1ccc(CCc2nc3cc(-c4c(C)noc4C)ccc3n2C[C@H](C)N2CCOCC2)cc1Cl,inactive: 0.104
5,O=C(O)c1cc2cccc([N+](=O)[O-])c2[nH]1,inactive: 0.499
6,CN(C)CCC(c1ccc(Cl)cc1)c1ccccn1 (stereo not drawn) [Chlorpheniramine Maleate],inactive: -0.424
7,OCC(O)CN1CCN(c2ccccc2)CC1 (stereo not drawn) [Dropropizine],inactive: -0.653
8,COc1ccccc1N1CCN(CCN2C(=O)CC3(CCCC3)CC2=O)CC1,inactive: -0.426
9,COc1ccc(-c2coc3cc(O)cc(O)c3c2=O)cc1 [Biochanin A],inactive: 1.16
10,NS(=O)(=O)NCCNc1nonc1/C(=N/O)Nc1ccc(F)c(Br)c1,inactive: 0.983
11,O[C@@H](COc1cccc2ncccc12)CN1CCN(C2c3ccccc3[C@@H]3[C@H](c4ccccc42)C3(F)F)CC1 (stereo partly drawn),inactive: -0.833
12,O=S(=O)(NCCNC/C=C/c1ccc(Br)cc1)c1cccc2cnccc12,inactive: -0.475
13,CCC(=O)NCC[C@@H]1CCc2ccc3c(c21)CCO3 [Ramelteon],inactive: -0.439
14,COC1=CC(=O)C[C@@H](C)[C@]12Oc1c(Cl)c(OC)cc(OC)c1C2=O [Griseofulvin],inactive: 4.87
15,CC(C)(C)c1cc(/C=C(\C#N)C(N)=S)cc(C(C)(C)C)c1O [Tyrphostin AG 879],inactive: -0.0588
16,CC[C@H](Nc1ncnc2[nH]cnc12)c1nc2cccc(F)c2c(=O)n1-c1ccccc1 [CAL-101 (Idelalisib_ GS-1101)],inactive: -0.223
17,CC(C)c1noc(N2CCC(COc3ccc(-c4ccc(S(C)(=O)=O)cc4)nc3)CC2)n1,inactive: 0.337
18,O=C(NC1CCNCC1)c1n[nH]cc1NC(=O)c1c(Cl)cccc1Cl,active: -6.28 and active: -6.54
19,O=CN1CC/C(=C/c2ccc3c(c2)OCO3)C1=O,inactive: 0.148
20,Cc1onc(-c2ccccc2)c1C(=O)N[C@@H]1C(=O)N2[C@@H]1SC(C)(C)[C@@H]2C(=O)O [Oxacillin sodium monohydrate],inactive: -0.238
21,CCCC(CCC)C(=O)O [Divalproex Sodium],inactive: -0.628

row,Structure (SMILES),nuclei number (z-score)
1,CCCC(CCC)C(=O)O [Valproic acid sodium salt (Sodium valproate)],inactive: 0.0724
2,CN(C)[C@@H](CCOc1cccc2ccccc12)c1ccccc1 [Dapoxetine HCl],inactive: 0.00662
3,"CO[C@H]1C[C@@H]2CC[C@@H](C)[C@@](O)(O2)C(=O)C(=O)N2CCCC[C@H]2C(=O)O[C@H]([C@H](C)C[C@@H]2CC[C@@H](OP(C)(C)=O)[C@H](OC)C2)CC(=O)[C@H](C)/C=C(\C)[C@@H](O)[C@@H](OC)C(=O)[C@H](C)C[C@H](C)/C=C/C=C/C=C/1C [Ridaforolimus (Deforolimus, MK-8669)]",inactive: -1.57
4,CC(C)(C)NCC(O)c1ccc(O)c(CO)c1 (stereo not drawn) [Salbutamol Sulfate],inactive: 0.637
5,O=S(=O)(N=Cc1c(O)ccc2ccccc12)c1cccs1,inactive: 0.615
6,CCS(=O)(=O)N1CCC([C@@H](C)n2c(C)c(C(=O)NCc3c(OC)cc(C)[nH]c3=O)c3ccccc32)CC1,inactive: -0.0358
7,Fc1ccc(CNc2ncnc3ccc(F)cc23)cc1 [Spautin-1],inactive: -0.312
8,O=C1CCc2c(ccc3ccccc23)O1 [Splitomicin],inactive: 1.69
9,CC[C@@H]1C(=O)N(C)c2cnc(Nc3ccc(C(=O)NC4CCN(C)CC4)cc3OC)nc2N1C1CCCC1,active: -2.26
10,O=C([O-])C(O)[C@H](O)[C@@H](O)[C@H](O)[C@H](O)CO.O=C([O-])C(O)[C@H](O)[C@@H](O)[C@H](O)[C@H](O)CO.[Ca+2] (stereo partly drawn) [Calcium Gluceptate],inactive: -0.0892
11,Cc1c(OCC(F)(F)F)ccnc1C[S+]([O-])c1nc2ccccc2[nH]1 (stereo not drawn) [Lansoprazole],inactive: 1.49
12,CC(=O)O[C@H]1Cc2ccccc2N(C(N)=O)c2ccccc21 [Eslicarbazepine Acetate],inactive: 0.201
13,CCOC(=O)c1ccc(O)cc1 [Ethylparaben],inactive: 2.97
14,COC(=O)Nc1nc2cc(C(=O)c3ccc(F)cc3)ccc2[nH]1 [Flubendazole],inactive: 1.76
15,COc1ccc(COc2cc3oc(=O)c4cc(C(C)O)ccc4c3cc2OC)cc1 (stereo not drawn) [Palomid 529 (P529)],inactive: 0.801
16,NC1=N[C@@]2(c3cc(NC(=O)c4ccc(F)cn4)ccc3F)COC[C@H]2CS1,inactive: 3.53
17,COc1ccc2cc1Oc1ccc(cc1)C[C@H]1c3c(cc4c(c3Oc3cc5c(cc3OC)CCN(C)[C@@H]5C2)OCO4)CCN1C [Cepharanthine],active: -7.22
18,COc1ccccc1OCCNCC(O)COc1cccc2[nH]c3ccccc3c12 (stereo not drawn) [Carvedilol],inactive: -1.28
19,CC(C)c1nc(CN(C)C(=O)N[C@H](C(=O)N[C@@H](Cc2ccccc2)C[C@H](O)[C@H](Cc2ccccc2)NC(=O)OCc2cncs2)C(C)C)cs1 [Ritonavir],inactive: -0.0733
20,COc1ccc(-n2nc(C(N)=O)c3c2C(=O)N(c2ccc(N4CCCCC4=O)cc2)CC3)cc1 [Apixaban],inactive: 0.0209
21,CC(C)CC(NC(=O)C(Cc1ccccc1)NC(=O)C(CCC(N)=O)NC(=O)C(Cc1ccc(O)cc1)NC(=O)C(C)NC(=O)CNC(=O)C(CCCCN)NC(=O)C(Cc1c[nH]c2ccccc12)NC(=O)C(NC(=O)C(Cc1c[nH]c2ccccc12)NC(=O)C(CCCCN)NC(=O)CNC(=O)C(CC(N)=O)NC(=O)C(CCC(=O)O)NC(=O)C(Cc1c[nH]c2ccccc12)NC(=O)C(NC(=O)C(Cc1c[nH]c2ccccc12)NC(=O)C(CO)NC(=O)CNC(=O)C1CCCN1C(=O)C(Cc1c[nH]c2ccccc12)NC(=O)C(CCC(N)=O)NC(=O)C(Cc1ccccc1)NC(=O)CNC(=O)C(N)Cc1c[nH]cn1)C(C)O)C(C)O)C(=O)NC(CCCCN)C(=O)NCC(=O)NCC(=O)NCC(=O)NCC(=O)NC(CO)C(=O)NC(CCCNC(=N)N)C(=O)NC(CCCNC(=N)N)C(=O)NC(CCCNC(=N)N)C(=O)NC(CCCNC(=N)N)C(=O)NC(CCCNC(=N)N)C(=O)NC(CCCNC(=N)N)C(=O)NC(CCCNC(=N)N)C(=O)NC(CCCNC(=N)N)C(=O)NC(CCCNC(=N)N)C(=O)O (stereo not drawn),active: -5.39
